This test concerns MYC. Briefly: cells. The conditions noted are these: Homo sapiens, MV4-11, 4 h, read-out: Myc IC50 (μM).

For orientation: IC50 means the concentration that gives 50% inhibition.

Take `CNC(=O)N1CCc2c(c(N3CCCc4cc(-c5ccn(C)n5)c(C(F)F)cc43)nn2C2CCOCC2)C1` [Example 319, 3-[7-(difluoromethyl)-6-(1-methylpyrazol-3-yl)-3,4-dihydro-2H-quinolin-1-yl]-N-methyl-1-tetrahydropyran-4-yl-6,7-dihydro-4H-pyrazolo[4,3-c]pyridine-5-carboxamide]: the IC50 came to 0.008 µM. To `CNC(=O)N1CCc2c(c(N3CCCc4cc(-c5cn(C)nc5C)c(C(F)F)cc43)nn2C2CCOCC2)C1` [Example 320, 3-[7-(difluoromethyl)-6-(1,3-dimethylpyrazol-4-yl)-3,4-dihydro-2H-quinolin-1-yl]-N-methyl-1-tetrahydropyran-4-yl-6,7-dihydro-4H-pyrazolo[4,3-c]pyridine-5-carboxamide] belongs 0.021 µM; to `CNC(=O)N1CCc2c(c(N3CCCc4cc(-c5cc(C)n(C)n5)c(C(F)F)cc43)nn2C2CCOCC2)C1` [Example 321, 3-[7-(difluoromethyl)-6-(1,5-dimethylpyrazol-3-yl)-3,4-dihydro-2H-quinolin-1-yl]-N-methyl-1-tetrahydropyran-4-yl-6,7-dihydro-4H-pyrazolo[4,3-c]pyridine-5-carboxamide], 0.011 µM; to `CC(=O)N1CCc2c(c(N3CCCc4cc(-c5cnn(C)c5C)c(C(F)F)cc43)nn2C2CCS(=O)(=O)CC2)C1` [Example 322, 1-[3-[7-(difluoromethyl)-6-(1,5-dimethylpyrazol-4-yl)-3,4-dihydro-2H-quinolin-1-yl]-1-(1,1-dioxothian-4-yl)-6,7-dihydro-4H-pyrazolo[4,3-c]pyridin-5-yl]ethanone], 0.019 µM.

`CC(=O)N1CCc2c(c(N3CCCc4cc(-c5cnn(C)c5)c(C(F)F)cc43)nn2C2CCS(=O)(=O)CC2)C1` [Example 323]: the IC50 is 0.021 µM. As for `CNC(=O)N1CCc2c(c(N3CCCc4cc(-c5cnn(C)c5C)c(C(F)F)cc43)nn2C2CCS(=O)(=O)CC2)C1` [Example 324, 3-[7-(difluoromethyl)-6-(1,5-dimethylpyrazol-4-yl)-3,4-dihydro-2H-quinolin-1-yl]-1-(1,1-dioxothian-4-yl)-N-methyl-6,7-dihydro-4H-pyrazolo[4,3-c]pyridine-5-carboxamide], the IC50 is 0.011 µM.

Regarding `CNC(=O)N1CCc2c(c(N3CCCc4cc(-c5cnn(C)c5)c(C(F)F)cc43)nn2C2CCS(=O)(=O)CC2)C1` [Example 325, 3-[7-(difluoromethyl)-6-(1-methylpyrazol-4-yl)-3,4-dihydro-2H-quinolin-1-yl]-1-(1,1-dioxothian-4-yl)-N-methyl-6,7-dihydro-4H-pyrazolo[4,3-c]pyridine-5-carboxamide], the IC50 was found to be 0.017 µM. As to `CNC(=O)N1CCc2c(c(N3CCCc4cc(-c5cn(C)nc5C(F)(F)F)c(C(F)F)cc43)nn2C2CCS(=O)(=O)CC2)C1` [Example 326, 3-[7-(difluoromethyl)-6-[1-methyl-3-(trifluoromethyl)pyrazol-4-yl]-3,4-dihydro-2H-quinolin-1-yl]-1-(1,1-dioxothian-4-yl)-N-methyl-6,7-dihydro-4H-pyrazolo[4,3-c]pyridine-5-carboxamide], the IC50 was 0.078 µM. With `CC(=O)N1CCC(n2nc(N3CCCc4cc(-c5cnn(C)c5)c(C(F)F)cc43)c3c2CCN(C(C)=O)C3)CC1` [Example 327, 1-[4-[5-acetyl-3-[7-(difluoromethyl)-6-(1-methylpyrazol-4-yl)-3,4-dihydro-2H-quinolin-1-yl]-6,7-dihydro-4H-pyrazolo[4,3-c]pyridin-1-yl]-1-piperidyl]ethanone], the IC50 was 0.006 µM.

Regarding `CNC(=O)N1CCc2c(c(N3CCCc4cc(-c5cnn(C)c5)c(C(F)F)cc43)nn2C2CCN(C(C)=O)CC2)C1` [Example 328, 1-(1-acetyl-4-piperidyl)-3-[7-(difluoromethyl)-6-(1-methylpyrazol-4-yl)-3,4-dihydro-2H-quinolin-1-yl]-N-methyl-6,7-dihydro-4H-pyrazolo[4,3-c]pyridine-5-carboxamide], the IC50 was 0.007 µM. With `CNC(=O)N1CCc2c(c(N3CCN(C)c4cc(-c5cnn(C)c5)c(C(F)(F)F)cc43)nn2C2CCN(C(C)=O)CC2)C1` [Example 329, 1-(1-acetyl-4-piperidyl)-N-methyl-3-[4-methyl-6-(1-methylpyrazol-4-yl)-7-(trifluoromethyl)-2,3-dihydroquinoxalin-1-yl]-6,7-dihydro-4H-pyrazolo[4,3-c]pyridine-5-carboxamide], the IC50 came out at 0.007 µM.

With `CNC(=O)N1CCc2c(c(N3CCN(C)c4cc(-c5cnn(C)c5)c(C(F)(F)F)cc43)nn2C2CCN(C3COC3)CC2)C1` [Example 330, N-methyl-3-[4-methyl-6-(1-methylpyrazol-4-yl)-7-(trifluoromethyl)-2,3-dihydroquinoxalin-1-yl]-1-[1-(oxetan-3-yl)-4-piperidyl]-6,7-dihydro-4H-pyrazolo[4,3-c]pyridine-5-carboxamide], the half-maximal inhibitory concentration (IC50) turned out to be 0.015 µM. As to `CNC(=O)N1CCc2c(c(N3CCCc4cc(-c5cnn(C)c5)c(Cl)cc43)nn2C2CCN(C3COC3)CC2)C1` [Example 331, 3-[7-chloro-6-(1-methylpyrazol-4-yl)-3,4-dihydro-2H-quinolin-1-yl]-N-methyl-1-[1-(oxetan-3-yl)-4-piperidyl]-6,7-dihydro-4H-pyrazolo[4,3-c]pyridine-5-carboxamide], the IC50 was determined as 0.018 µM. In the case of `CNC(=O)N1CCc2[nH]nc(N3CCCc4cc(-c5cnn(C)c5)c(C(F)F)cc43)c2C1` [Example 332, 3-[7-(difluoromethyl)-6-(1-methylpyrazol-4-yl)-3,4-dihydro-2H-quinolin-1-yl]-N-methyl-1,4,6,7-tetrahydropyrazolo[4,3-c]pyridine-5-carboxamide], the IC50 is 0.062 µM.

As to `CC(=O)N1CCc2[nH]nc(N3CCCc4cc(-c5cnn(C)c5)c(C(F)F)cc43)c2C1` [Example 333, 1-[3-[7-(difluoromethyl)-6-(1-methylpyrazol-4-yl)-3,4-dihydro-2H-quinolin-1-yl]-1,4,6,7-tetrahydropyrazolo[4,3-c]pyridin-5-yl]ethanone], the IC50 is 0.063 µM. To `CNC(=O)N1CCc2c(c(N3CCCc4cc(-c5cnn(C)c5)c(C(F)F)cc43)nn2C2CCN(CC(F)(F)F)CC2)C1` [Example 334, 3-[7-(difluoromethyl)-6-(1-methylpyrazol-4-yl)-3,4-dihydro-2H-quinolin-1-yl]-N-methyl-1-[1-(2,2,2-trifluoroethyl)-4-piperidyl]-6,7-dihydro-4H-pyrazolo[4,3-c]pyridine-5-carboxamide] belongs 0.009 µM; to `CNC(=O)N1CCc2c(c(N3CCCc4cc(-c5cnn(C)c5)c(C(F)F)cc43)nn2C2CCN(CC(F)F)CC2)C1` [Example 335, 1-[1-(2,2-difluoroethyl)-4-piperidyl]-3-[7-(difluoromethyl)-6-(1-methylpyrazol-4-yl)-3,4-dihydro-2H-quinolin-1-yl]-N-methyl-6,7-dihydro-4H-pyrazolo[4,3-c]pyridine-5-carboxamide], 0.005 µM.

Consider `CNC(=O)N1CCc2c(c(N3CCCc4cc(-c5cnn(C)c5)c(C(F)F)cc43)nn2C2CCN(C3COC3)CC2)C1` [Example 336, 3-[7-(difluoromethyl)-6-(1-methylpyrazol-4-yl)-3,4-dihydro-2H-quinolin-1-yl]-N-methyl-1-[1-(oxetan-3-yl)-4-piperidyl]-6,7-dihydro-4H-pyrazolo[4,3-c]pyridine-5-carboxamide], for which the IC50 is 0.005 µM.

For `CNC(=O)N1CCc2c(c(N3CCCc4cc(-c5cnn(C)c5)c(C(F)F)cc43)nn2C2CCN(S(C)(=O)=O)CC2)C1` [Example 337, 3-[7-(difluoromethyl)-6-(1-methylpyrazol-4-yl)-3,4-dihydro-2H-quinolin-1-yl]-N-methyl-1-(1-methylsulfonyl-4-piperidyl)-6,7-dihydro-4H-pyrazolo[4,3-c]pyridine-5-carboxamide], the IC50 amounted to 0.012 µM.

With `CNC(=O)N1CCc2c(c(N3CCCc4cc(-c5cnn(C)c5)c(C(F)F)cc43)nn2[C@H]2CCO[C@@H](C)C2)C1` [Example 338, (S,S)-3-[7-(difluoromethyl)-6-(1-methylpyrazol-4-yl)-3,4-dihydro-2H-quinolin-1-yl]-N-methyl-1-(2-methyltetrahydropyran-4-yl)-6,7-dihydro-4H-pyrazolo[4,3-c]pyridine-5-carboxamide], the IC50 was 0.008 µM. Consider `CNC(=O)N1CCc2c(c(N3CCCc4cc(-c5cnn(C)c5)c(C(F)F)cc43)nn2[C@@H]2CCO[C@H](C)C2)C1` [Example 339, (R,R)-3-[7-(difluoromethyl)-6-(1-methylpyrazol-4-yl)-3,4-dihydro-2H-quinolin-1-yl]-N-methyl-1-(2-methyltetrahydropyran-4-yl)-6,7-dihydro-4H-pyrazolo[4,3-c]pyridine-5-carboxamide], for which the IC50 worked out at 0.006 µM. For the compound `CNC(=O)N1CCc2c(c(N3CCCc4cc(-c5cnn(C)c5)c(C(F)F)cc43)nn2-c2ccccc2)C1` [Example 340, 3-[7-(difluoromethyl)-6-(1-methylpyrazol-4-yl)-3,4-dihydro-2H-quinolin-1-yl]-N-methyl-1-phenyl-6,7-dihydro-4H-pyrazolo[4,3-c]pyridine-5-carboxamide], the IC50 came to 0.021 µM. As to `CNC(=O)N1CCc2c(c(N3CCCc4cc(-c5cnn(C)c5)c(C(F)F)cc43)nn2-c2cccnc2)C1` [Example 341, 3-[7-(difluoromethyl)-6-(1-methylpyrazol-4-yl)-3,4-dihydro-2H-quinolin-1-yl]-N-methyl-1-(3-pyridyl)-6,7-dihydro-4H-pyrazolo[4,3-c]pyridine-5-carboxamide], the IC50 was 0.038 µM.

Turning to `CNC(=O)N1CCc2c(c(N3CCCc4cc(-c5cnn(C)c5)c(C(F)F)cc43)nn2-c2ccncc2)C1` [Example 342, 3-[7-(difluoromethyl)-6-(1-methylpyrazol-4-yl)-3,4-dihydro-2H-quinolin-1-yl]-N-methyl-1-(4-pyridyl)-6,7-dihydro-4H-pyrazolo[4,3-c]pyridine-5-carboxamide], the IC50 was found to be 0.023 µM. Turning to `CC(=O)N1CCc2c(c(N3CCCc4cc(-c5cnn(C)c5)c(C(F)F)cc43)nn2C2CCN(CC(F)F)CC2)C1` [Example 345, 1-[1-[1-(2,2-difluoroethyl)-4-piperidyl]-3-[7-(difluoromethyl)-6-(1-methylpyrazol-4-yl)-3,4-dihydro-2H-quinolin-1-yl]-6,7-dihydro-4H-pyrazolo[4,3-c]pyridin-5-yl]ethanone], the IC50 was 0.013 µM.

For the origin of these results see US9763922B2 (priority 2014, dated 2017).
